Laboratory results from the antibiotic and cytotoxicity screens of Wong et al. (2023).
Some of the results follow.

Key:
HSkMC = human skeletal muscle cells; assay: cytotoxicity call (relative viability < 0.9); details: 10 µM
HepG2 = assay: cytotoxicity call (relative viability < 0.9); details: 10 µM
S. aureus RN4220 = assay: growth inhibition call (relative growth <= 0.2); details: 50 µM

CN[C@@H]1[C@@H](O[C@@]2(C)O[C@H](CO)[C@@H](N)[C@H](O)[C@H]2O)O[C@H]2C[C@@H](N)[C@@H](O[C@H]3[C@H](O)[C@@H](O)[C@H](N)C[C@@H]3N)O[C@@H]2[C@@H]1O
inactive: cytotoxicity call (HSkMC) | cytotoxicity call (HepG2) | growth inhibition call (S. aureus RN4220)

C[C@@H]1CN([C@@H](C)CO)C(=O)c2cc(NC(=O)Nc3ccc4c(c3)OCO4)ccc2O[C@@H](C)CCCCO[C@H]1CN(C)Cc1ccncc1
inactive: cytotoxicity call (HSkMC) | cytotoxicity call (HepG2) | growth inhibition call (S. aureus RN4220)

COc1ccc(NC(=O)N(C)C[C@H]2Oc3ccc(NC(=O)Nc4ccc(C(F)(F)F)cc4)cc3C(=O)N([C@@H](C)CO)C[C@H]2C)cc1
inactive: cytotoxicity call (HSkMC) | cytotoxicity call (HepG2) | growth inhibition call (S. aureus RN4220)

COCC(=O)Nc1ccc2c(c1)OC[C@@H](C)N(Cc1cccc(F)c1)C[C@H](C)[C@@H](OC)CN(C)C2=O
inactive: cytotoxicity call (HSkMC) | cytotoxicity call (HepG2) | growth inhibition call (S. aureus RN4220)

C[C@@H]1CN([C@@H](C)CO)C(=O)c2cc(NC(=O)Cc3ccccc3)ccc2O[C@H]1CN(C)S(=O)(=O)c1cn(C)cn1
inactive: cytotoxicity call (HSkMC) | cytotoxicity call (HepG2) | growth inhibition call (S. aureus RN4220)

C[C@@H]1CN([C@@H](C)CO)C(=O)c2cc(NC(=O)C3CCCCC3)ccc2O[C@@H](C)CCCCO[C@H]1CN(C)S(=O)(=O)c1ccc(F)cc1
inactive: cytotoxicity call (HSkMC) | cytotoxicity call (HepG2) | growth inhibition call (S. aureus RN4220)

C[C@H](CO)N1C[C@H](C)[C@@H](CN(C)C(=O)CN(C)C)Oc2cc(C#Cc3cccnc3)ccc2S1(=O)=O
inactive: cytotoxicity call (HSkMC) | cytotoxicity call (HepG2) | growth inhibition call (S. aureus RN4220)

Cc1noc(C)c1S(=O)(=O)N(C)C[C@@H]1OCCCC[C@H](C)Oc2ccc(N(C)C)cc2C(=O)N([C@@H](C)CO)C[C@H]1C
inactive: cytotoxicity call (HSkMC) | cytotoxicity call (HepG2) | growth inhibition call (S. aureus RN4220)
